Read counts are not given, so values of variants with three or more changes are uncertain.
B1: CPEB3 Ribozyme (parent)
chain: UAACAGGGGGCCACAGCAGAAGCGUUCACGUCGCAGCCCCUGUCAGAUUCUGGUGAAUCUGCGAAUUCUGCUGUAUAUCUC

Variants of: B1
Test: self-cleavage, relative activity (ratio to wild type); higher = more cleavage; in vitro, sequencing
In short: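 Relative activity was defined as the cleaved/total read fraction for a variant divided by the same fraction for the unmutated ribozyme. CPEB3 self-cleaving ribozyme libraries were made by rounds of error-prone PCR, barcoded, and transcribed in vitro with T7 RNA polymerase for 5 hours at 37°C, and cleavage ran through transcription plus a 15 min DNase I step before EDTA. Illumina sequencing of template-switched reverse transcripts gave the reads, and DNA sequencing mapped the barcodes. Averages come from three batches, using variants with at least 5 reads.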

Variant	self-cleavage
A2U C11G A13U U26A C38U A75G U76C	0.05
A2U C11G A28U U51A A64G A77G	0.07
A2U C11U A56U A65U U67A U78C	0.04
A2U C12U A15G A20U U58C A64U	0.17
A2U C12U A18U A20U U26A A28U U76C	0.05
A2U C12U U41C U66C	0.83
A2U C14A G42A	0.25
A2U C14U A18U U25C U26G C44U	0.15
A2U C17A U26A U41C A77U	0.33
A2U C17U A45C	0.1
A2U C17U G33C	0.22
A2U C17U G33C U72C	0.19
A2U C23U U72A	0.1
A2U C27G A28G C34G U43C A64G A75G	0.16
A2U C29U A56G	0.19
A2U C29U G30A U49C U67A	0.17
A2U C34G C62U	0.1
A2U C34U A35G A64G U72C U74C	0.11
A2U C37A U72A	0.38
A2U G6A A35U U43C A56U	0.28
A2U G6A U31C A35U U72C	0.19
A2U G6A U41C	0.54
A2U G6A U41C A57G	0.42
A2U G6U C32A U67A U76C	0.31

Variant	self-cleavage
A2U G7A A28G A35U A47G A57G U72C	0.12
A2U G7A A35G U66C U74C	0.08
A2U G7A A57G	0.35
A2U G7A C38A A56G	0.18
A2U G7U A13U A28U U41C U51A A57G	0.18
A2U G7U A45G G61U	0.32
A2U G8A U25A U31C U67G	0.14
A2U G8A U26C A35G U60C	0.07
A2U G8A U43A U48C U72A	0.04
A2U G8C A65G U67C U74C A75U	0
A2U G8U A28C A65G	0.16
A2U G8U A28G	0.07
A2U G9A A18U A56U	0.18
A2U G9A A45G	0.41
A2U G9A U72C U78C	0.17
A2U G9C A77G	0.43
A2U G9U A13U A45G U49C U54A A57G	0.04
A2U G9U A57G U72C U74C A77G	0.05
A2U G9U U78C	0.33
A2U G10A A13G C37G U48C	0.08
A2U G10A A13U U78C	0.28
A2U G10A C23U U43C	0.06
A2U G10C U31A U54C U58A	0.22
A2U G16A A56U U60C A64G	0.16

Variant	self-cleavage
A2U G16C U51C A64G A65G	0.2
A2U G16U A28G U72G A77G	0.18
A2U G19A U41C U51C	0.21
A2U G19C A21G U51G A57G A75U	0.03
A2U G22C A45G U60C	0.1
A2U G24U A56G U78C U80A	0.07
A2U G33C A56U A57G U78C	0.12
A2U G52C A64G C68U	0.62
A2U U25A U31C U43A U60A U69C	0.16
A2U U25A U69C	0.19
A2U U25C A28C	0.08
A2U U25C A28G A64G C68A U74C	0.03
A2U U25C A28G C38A A56G U69C	0.06
A2U U25C A28U A35G A45U U51C U80C	0.01
A2U U25C A47U U51G U58C A75G	0.08
A2U U25C A56G U78C	0.25
A2U U25C A64C U80C	0.1
A2U U25C A64U A75U	0.08
A2U U25C A65G	0.25
A2U U25C U26C U43A U54C U78C	0.19
A2U U25C U31A U72C	0.07
A2U U25C U31C U51A U78A	0.2
A2U U25C U31C U51A U78C	0.08
A2U U25C U41C U66C	0.38

Variant	self-cleavage
A2U U25C U67C U72C	0.08
A2U U25G U26A C38U U72C	0.36
A2U U26A A28G U72C U76A	0.3
A2U U26A A45U U54C	0.37
A2U U26A A56G	0.46
A2U U26A U43A C44U U74C	0.59
A2U U26A U54G	0.59
A2U U26A U67A U78C	0.32
A2U U26A U72C	0.18
A2U U26C A77U	0.65
A2U U26C U60C A64G U66C U69C	0.31
A2U U31A U67A G70A	0.19
A2U U31C A35G	1.12
A2U U31C A35U A65U	0.17
A2U U31C U58C	0.1
A2U U31G U51C	0.41
A2U U41A A56G	0.24
A2U U41A U54G	0.31
A2U U41C A64G U67A U69C	0.2
A2U U41C G42C U51C A64G U69C	0.36
A2U U41C U60A U67C A75G	0.17
A2U U41C U67A	0.58
A2U U41G A47G G70A	0.06
A2U U43C U60A	0.15

Variant	self-cleavage
A2U U48C U49C U69A U72C	0.11
A2U U49A U51C U60A	0.14
A2U U49C G70A	0.36
A2U U49C U51C U60A	0.09
A2U U51C U58C U60C U72C U78C	0.21
A2U U54C A64U	0.39
A2U U54C U69C U78C	0.32
A2U U54G A64U	0.32
A2U U58C A65U	0.25
A2U U58C U78A	0.53
A2U U67C U74C	0.18
A2U U69C A75G	0.23
A2U U69C U78A	0.29
A3C A5C A15U	0.47
A3C A5C A21G U51G U74A	1.01
A3C A5C A28C A56G U58C	0.28
A3C A5C C11G A13U C40U U76C	0.61
A3C A5G A13G U25A U60C	0
A3C A5G A35U U51A U80C	0.48
A3C A5U A18G A20U U25A G33U U80A	0.14
A3C A5U A21G U51G U60C G63U	0.06
A3C A13C G53C	1.09
A3C A13C U67C U72C U78C	0.37
A3C A13G G73A	1.16

Variant	self-cleavage
A3C A13G U26C A28G C40U C50A	0.07
A3C A13G U49C	0.48
A3C A13U A28C	0.87
A3C A13U A64G U66C	0.69
A3C A13U C14A C17A C40U U78C	0.49
A3C A13U C32U U49C A64U U78C	0.06
A3C A13U G42A C44A	0.32
A3C A13U U43C	1.24
A3C A15G A45G	0.49
A3C A15G A47G U54C A56U U67C U78A	0.19
A3C A15G U25C U26C	0.7
A3C A15G U25C U49C	0.4
A3C A15G U26A A64G	0.92
A3C A15G U60A	0.56
A3C A15U A35G U41C U43C	1.12
A3C A15U A65G U80C	0.51
A3C A15U U25C U26C A65U U80C	0.35
A3C A18G G24C U41C U67C U80A	0.12
A3C A18G U25C C29U G52U U60A A65G	0.14
A3C A18G U43A U58A U60A A64G U69A	0.22
A3C A18G U51A U72C U76C A77G	0.49
A3C A18U A45G A56G	0.42
A3C A18U U49C U60C U72C	0.08
A3C A18U U51C	0.39

Variant	self-cleavage
A3C A20G A21G A47U	0.4
A3C A20G A28U C32A A47G U60C U80C	0.28
A3C A20G U25A A47C U48C	0.37
A3C A20U A35U G63A U69C	0.08
A3C A20U C23U G33A U72A A77G	0.28
A3C A20U C38A U51G G63U	0.1
A3C A20U U31A A35G U69A A77G	0.37
A3C A20U U76C U78C	0.27
A3C A21C U72C U78C	0.38
A3C A21G A35G C38U	1.2
A3C A21G A64G	0.71
A3C A21G C23U A47G C59A U72C	0.11
A3C A21G G22A C23U U51C U60C A64C	0.07
A3C A21G U25C C71G	0.08
A3C A21G U80C	0.86
A3C A21U C29G	0.43
A3C A28G A47G U51C U60A G73C U74A	0.14
A3C A28G C40A U41A A47U C68A U74C	0.05
A3C A28G U31C U41C	0.52
A3C A28G U41A	0.19
A3C A28G U49C	0.14
A3C A28U A35G U43A U58A U60C U69A	0.46
A3C A28U U43C A45G U80C	0.46
